Test results published in ChEMBL document CHEMBL1961873, “Compounds: GSK PKIS; Assays: Nanosyn kinase panel” (2012).
For some assays here: This list holds what a sample rich in strong results left over. This is a selection; strong and weak results do not stand in their true shares.

How the values were obtained:
[1] = target: T1, Inhibitor of nuclear factor kappa-B kinase subunit epsilon (Homo sapiens) (UniProt Q14164); details: at 1 µM;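 also: reported values are averaged percent inhibition figures against human IKKε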
T1 sequence (whole entry): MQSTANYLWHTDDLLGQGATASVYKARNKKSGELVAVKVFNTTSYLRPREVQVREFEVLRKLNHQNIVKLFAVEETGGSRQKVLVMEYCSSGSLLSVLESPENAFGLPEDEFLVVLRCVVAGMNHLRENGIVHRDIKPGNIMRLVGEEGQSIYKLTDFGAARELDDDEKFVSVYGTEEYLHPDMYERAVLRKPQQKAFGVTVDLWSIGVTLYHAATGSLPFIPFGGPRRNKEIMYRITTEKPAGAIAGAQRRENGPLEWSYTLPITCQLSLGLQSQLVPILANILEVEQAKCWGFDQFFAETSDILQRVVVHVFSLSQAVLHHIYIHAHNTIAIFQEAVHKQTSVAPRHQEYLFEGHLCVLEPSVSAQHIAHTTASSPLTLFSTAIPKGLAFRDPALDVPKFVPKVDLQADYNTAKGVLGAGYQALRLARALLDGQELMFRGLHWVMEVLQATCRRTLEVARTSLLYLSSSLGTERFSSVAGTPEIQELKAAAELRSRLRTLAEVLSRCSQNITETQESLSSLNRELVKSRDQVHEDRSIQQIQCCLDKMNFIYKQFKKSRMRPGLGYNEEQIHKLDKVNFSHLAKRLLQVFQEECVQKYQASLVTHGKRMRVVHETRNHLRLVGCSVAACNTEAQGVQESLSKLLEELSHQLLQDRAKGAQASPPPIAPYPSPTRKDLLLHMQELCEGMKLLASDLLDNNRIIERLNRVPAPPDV

[2] = target: T2, Serine/threonine-protein kinase Nek1 (Homo sapiens) (UniProt Q96PY6); details: at 0.1 µM
T2 sequence (whole entry): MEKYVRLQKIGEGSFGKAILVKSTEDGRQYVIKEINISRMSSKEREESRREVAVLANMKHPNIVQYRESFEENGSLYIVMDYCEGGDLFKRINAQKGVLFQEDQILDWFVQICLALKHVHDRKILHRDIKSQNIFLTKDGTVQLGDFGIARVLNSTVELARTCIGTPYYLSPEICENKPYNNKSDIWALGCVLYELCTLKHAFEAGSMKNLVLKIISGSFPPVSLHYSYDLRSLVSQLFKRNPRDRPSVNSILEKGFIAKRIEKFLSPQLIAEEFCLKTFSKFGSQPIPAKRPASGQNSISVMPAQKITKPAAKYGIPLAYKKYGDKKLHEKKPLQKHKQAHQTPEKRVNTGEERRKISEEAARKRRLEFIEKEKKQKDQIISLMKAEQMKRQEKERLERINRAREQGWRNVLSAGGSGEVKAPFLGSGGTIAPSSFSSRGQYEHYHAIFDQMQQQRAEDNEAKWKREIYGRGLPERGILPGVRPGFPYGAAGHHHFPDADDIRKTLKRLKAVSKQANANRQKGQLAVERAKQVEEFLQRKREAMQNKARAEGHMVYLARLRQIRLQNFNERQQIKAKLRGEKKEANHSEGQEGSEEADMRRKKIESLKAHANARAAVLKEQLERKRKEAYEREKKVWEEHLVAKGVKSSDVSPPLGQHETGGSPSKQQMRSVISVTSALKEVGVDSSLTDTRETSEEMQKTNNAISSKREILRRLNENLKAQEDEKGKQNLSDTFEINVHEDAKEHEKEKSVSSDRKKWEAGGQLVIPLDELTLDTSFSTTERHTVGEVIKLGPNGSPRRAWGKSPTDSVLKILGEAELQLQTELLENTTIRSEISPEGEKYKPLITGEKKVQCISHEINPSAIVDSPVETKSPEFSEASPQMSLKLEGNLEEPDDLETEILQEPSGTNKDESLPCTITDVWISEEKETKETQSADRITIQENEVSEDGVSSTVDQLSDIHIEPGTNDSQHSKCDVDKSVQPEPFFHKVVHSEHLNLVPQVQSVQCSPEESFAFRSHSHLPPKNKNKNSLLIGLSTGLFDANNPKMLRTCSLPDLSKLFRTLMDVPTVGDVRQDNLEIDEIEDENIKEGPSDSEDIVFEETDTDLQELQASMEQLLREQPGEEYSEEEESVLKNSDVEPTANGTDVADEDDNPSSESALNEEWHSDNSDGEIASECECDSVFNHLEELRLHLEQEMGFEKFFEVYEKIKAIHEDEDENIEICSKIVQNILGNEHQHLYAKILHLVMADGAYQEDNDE

[3] = target: T2, Serine/threonine-protein kinase Nek1 (Homo sapiens); details: at 1 µM
[4] = target: T3, Serine/threonine-protein kinase Nek2 (Homo sapiens) (UniProt P51955); details: at 0.1 µM
T3 sequence (whole entry): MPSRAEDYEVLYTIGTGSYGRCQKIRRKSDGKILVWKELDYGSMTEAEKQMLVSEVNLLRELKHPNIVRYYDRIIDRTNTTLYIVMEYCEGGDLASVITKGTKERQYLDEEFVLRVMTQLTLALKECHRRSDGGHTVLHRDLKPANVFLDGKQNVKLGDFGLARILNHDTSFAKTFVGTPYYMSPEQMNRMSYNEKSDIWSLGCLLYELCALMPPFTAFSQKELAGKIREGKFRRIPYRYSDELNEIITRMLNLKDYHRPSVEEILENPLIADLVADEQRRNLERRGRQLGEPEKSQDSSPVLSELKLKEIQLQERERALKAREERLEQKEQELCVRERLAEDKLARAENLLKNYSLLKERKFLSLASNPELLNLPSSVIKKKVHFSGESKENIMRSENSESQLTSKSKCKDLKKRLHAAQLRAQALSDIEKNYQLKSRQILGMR

[5] = target: T3, Serine/threonine-protein kinase Nek2 (Homo sapiens); details: at 1 µM
[6] = target: T4, Serine/threonine-protein kinase Nek6 (Homo sapiens) (UniProt Q9HC98); details: at 0.1 µM
T4 sequence (whole entry): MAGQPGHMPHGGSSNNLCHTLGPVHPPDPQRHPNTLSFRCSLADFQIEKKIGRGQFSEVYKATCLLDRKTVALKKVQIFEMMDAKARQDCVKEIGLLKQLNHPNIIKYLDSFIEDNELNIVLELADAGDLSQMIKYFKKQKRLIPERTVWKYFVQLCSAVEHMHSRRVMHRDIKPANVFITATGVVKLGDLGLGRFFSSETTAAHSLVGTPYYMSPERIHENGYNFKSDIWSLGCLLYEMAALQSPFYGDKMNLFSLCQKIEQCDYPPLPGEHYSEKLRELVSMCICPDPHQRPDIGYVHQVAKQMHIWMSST

[7] = target: T4, Serine/threonine-protein kinase Nek6 (Homo sapiens); details: at 1 µM
[8] = target: Serine/threonine-protein kinase Nek7 (Homo sapiens) (UniProt Q8TDX7); details: at 0.1 µM
[9] = target: Serine/threonine-protein kinase Nek7 (Homo sapiens) (UniProt Q8TDX7); details: at 1 µM
[10] = target: T5, Serine/threonine-protein kinase Nek9 (Homo sapiens) (UniProt Q8TD19); details: at 0.1 µM
T5 sequence (whole entry): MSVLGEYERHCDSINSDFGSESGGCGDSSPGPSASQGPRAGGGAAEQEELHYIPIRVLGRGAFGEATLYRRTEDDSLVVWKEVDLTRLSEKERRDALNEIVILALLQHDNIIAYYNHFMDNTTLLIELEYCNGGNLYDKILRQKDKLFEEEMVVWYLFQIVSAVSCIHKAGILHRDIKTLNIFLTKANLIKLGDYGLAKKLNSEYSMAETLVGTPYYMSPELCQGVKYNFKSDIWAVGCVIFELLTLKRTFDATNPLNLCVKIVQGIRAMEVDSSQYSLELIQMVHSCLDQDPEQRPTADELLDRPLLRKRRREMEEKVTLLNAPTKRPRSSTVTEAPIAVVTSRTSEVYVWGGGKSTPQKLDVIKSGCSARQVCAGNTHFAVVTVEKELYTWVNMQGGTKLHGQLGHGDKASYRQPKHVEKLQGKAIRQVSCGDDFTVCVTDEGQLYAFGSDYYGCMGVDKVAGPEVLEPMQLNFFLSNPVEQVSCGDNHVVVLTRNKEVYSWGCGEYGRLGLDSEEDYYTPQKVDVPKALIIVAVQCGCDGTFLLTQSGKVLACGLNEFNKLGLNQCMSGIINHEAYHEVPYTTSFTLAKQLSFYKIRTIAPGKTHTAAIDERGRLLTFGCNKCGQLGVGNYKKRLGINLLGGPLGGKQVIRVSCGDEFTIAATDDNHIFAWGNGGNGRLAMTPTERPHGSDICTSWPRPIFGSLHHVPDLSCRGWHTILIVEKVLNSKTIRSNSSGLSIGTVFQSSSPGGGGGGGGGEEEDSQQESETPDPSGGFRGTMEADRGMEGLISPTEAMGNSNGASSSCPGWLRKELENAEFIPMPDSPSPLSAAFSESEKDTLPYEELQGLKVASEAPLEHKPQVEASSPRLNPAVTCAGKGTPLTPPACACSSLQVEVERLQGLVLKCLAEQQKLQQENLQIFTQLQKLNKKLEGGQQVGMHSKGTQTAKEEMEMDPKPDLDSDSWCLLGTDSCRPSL

[11] = target: T5, Serine/threonine-protein kinase Nek9 (Homo sapiens); details: at 1 µM
[12] = target: Serine/threonine-protein kinase PLK1 (Homo sapiens) (UniProt P53350); details: at 0.1 µM
[13] = target: Serine/threonine-protein kinase PLK1 (Homo sapiens) (UniProt P53350); details: at 1 µM
[14] = target: T6, Dual specificity protein kinase TTK (Homo sapiens) (UniProt P33981); details: at 0.1 µM
T6 sequence (whole entry): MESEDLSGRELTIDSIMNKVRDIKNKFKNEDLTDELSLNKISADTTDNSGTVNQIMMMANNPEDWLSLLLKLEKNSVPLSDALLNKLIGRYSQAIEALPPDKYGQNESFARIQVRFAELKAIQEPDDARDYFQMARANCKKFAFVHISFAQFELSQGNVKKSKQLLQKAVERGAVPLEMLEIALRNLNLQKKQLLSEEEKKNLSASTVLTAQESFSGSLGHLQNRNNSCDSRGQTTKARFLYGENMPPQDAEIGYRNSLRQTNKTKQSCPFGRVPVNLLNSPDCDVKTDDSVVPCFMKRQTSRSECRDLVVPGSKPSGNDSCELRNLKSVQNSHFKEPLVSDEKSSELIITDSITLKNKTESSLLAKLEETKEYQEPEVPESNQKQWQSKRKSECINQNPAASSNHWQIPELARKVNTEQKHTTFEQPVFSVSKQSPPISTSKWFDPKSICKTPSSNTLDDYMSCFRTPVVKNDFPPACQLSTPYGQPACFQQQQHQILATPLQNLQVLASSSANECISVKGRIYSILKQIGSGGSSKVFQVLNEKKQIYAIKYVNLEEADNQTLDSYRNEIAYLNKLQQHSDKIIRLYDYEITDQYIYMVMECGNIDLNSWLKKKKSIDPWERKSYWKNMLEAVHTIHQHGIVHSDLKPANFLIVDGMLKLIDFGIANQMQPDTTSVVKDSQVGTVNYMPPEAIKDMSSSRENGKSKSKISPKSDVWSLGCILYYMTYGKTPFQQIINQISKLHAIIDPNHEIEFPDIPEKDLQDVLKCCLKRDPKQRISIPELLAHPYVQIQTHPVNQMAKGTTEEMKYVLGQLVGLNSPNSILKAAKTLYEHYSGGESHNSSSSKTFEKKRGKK

[15] = system: T7, Receptor-type tyrosine-protein kinase FLT3 (Homo sapiens), P36888 [D835Y]; details: at 1 µM
T7 sequence (whole entry): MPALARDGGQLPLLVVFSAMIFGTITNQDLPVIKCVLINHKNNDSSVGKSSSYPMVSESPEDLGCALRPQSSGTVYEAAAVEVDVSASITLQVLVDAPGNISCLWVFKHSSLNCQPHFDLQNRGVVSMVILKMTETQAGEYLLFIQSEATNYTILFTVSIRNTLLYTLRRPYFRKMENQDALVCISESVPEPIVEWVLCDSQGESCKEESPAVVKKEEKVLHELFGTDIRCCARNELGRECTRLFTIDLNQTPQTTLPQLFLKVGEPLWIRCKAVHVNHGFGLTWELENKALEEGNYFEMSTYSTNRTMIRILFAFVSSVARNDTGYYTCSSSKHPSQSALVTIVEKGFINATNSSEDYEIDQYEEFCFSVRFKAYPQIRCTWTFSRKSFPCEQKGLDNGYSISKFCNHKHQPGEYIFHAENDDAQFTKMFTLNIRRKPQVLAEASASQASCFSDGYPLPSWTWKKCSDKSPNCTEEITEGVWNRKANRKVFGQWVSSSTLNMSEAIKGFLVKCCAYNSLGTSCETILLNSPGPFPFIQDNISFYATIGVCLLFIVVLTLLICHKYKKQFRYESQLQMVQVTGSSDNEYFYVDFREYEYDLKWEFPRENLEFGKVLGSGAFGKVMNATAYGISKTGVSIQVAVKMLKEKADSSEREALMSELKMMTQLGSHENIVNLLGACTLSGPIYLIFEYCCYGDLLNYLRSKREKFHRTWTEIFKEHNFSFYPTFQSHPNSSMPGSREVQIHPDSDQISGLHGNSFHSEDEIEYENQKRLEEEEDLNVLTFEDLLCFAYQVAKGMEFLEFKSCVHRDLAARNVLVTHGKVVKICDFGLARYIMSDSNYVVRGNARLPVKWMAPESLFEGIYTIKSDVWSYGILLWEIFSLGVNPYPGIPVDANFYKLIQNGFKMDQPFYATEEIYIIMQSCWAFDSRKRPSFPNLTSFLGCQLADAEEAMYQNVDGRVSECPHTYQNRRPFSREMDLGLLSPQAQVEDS

[16] = target: Vascular endothelial growth factor receptor 3 (Homo sapiens) (UniProt P35916); details: at 0.1 µM
[17] = target: Vascular endothelial growth factor receptor 3 (Homo sapiens) (UniProt P35916); details: at 1 µM
[18] = target: Macrophage colony-stimulating factor 1 receptor (Homo sapiens) (UniProt P07333); details: at 0.1 µM
[19] = target: Macrophage colony-stimulating factor 1 receptor (Homo sapiens) (UniProt P07333); details: at 1 µM
[20] = target: Tyrosine-protein kinase Fyn (Homo sapiens) (UniProt P06241); details: at 0.1 µM
Sequence of UniProt P06241 (P06241 whole entry, looked up): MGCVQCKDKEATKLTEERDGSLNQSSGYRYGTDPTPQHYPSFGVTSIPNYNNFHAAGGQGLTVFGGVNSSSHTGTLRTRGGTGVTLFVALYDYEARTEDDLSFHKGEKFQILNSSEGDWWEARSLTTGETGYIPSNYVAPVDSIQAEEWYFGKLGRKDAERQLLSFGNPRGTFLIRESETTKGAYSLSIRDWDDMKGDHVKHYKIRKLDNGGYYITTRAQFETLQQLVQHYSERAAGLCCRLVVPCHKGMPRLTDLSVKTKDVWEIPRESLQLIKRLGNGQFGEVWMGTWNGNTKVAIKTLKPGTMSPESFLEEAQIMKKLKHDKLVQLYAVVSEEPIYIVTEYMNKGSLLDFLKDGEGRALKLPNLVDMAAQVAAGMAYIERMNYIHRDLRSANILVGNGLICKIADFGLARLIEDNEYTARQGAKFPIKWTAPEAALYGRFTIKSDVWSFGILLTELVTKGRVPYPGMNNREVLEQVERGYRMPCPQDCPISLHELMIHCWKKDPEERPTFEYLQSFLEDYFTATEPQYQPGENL

Sequence of UniProt Q8TDX7 (Q8TDX7 whole entry, looked up): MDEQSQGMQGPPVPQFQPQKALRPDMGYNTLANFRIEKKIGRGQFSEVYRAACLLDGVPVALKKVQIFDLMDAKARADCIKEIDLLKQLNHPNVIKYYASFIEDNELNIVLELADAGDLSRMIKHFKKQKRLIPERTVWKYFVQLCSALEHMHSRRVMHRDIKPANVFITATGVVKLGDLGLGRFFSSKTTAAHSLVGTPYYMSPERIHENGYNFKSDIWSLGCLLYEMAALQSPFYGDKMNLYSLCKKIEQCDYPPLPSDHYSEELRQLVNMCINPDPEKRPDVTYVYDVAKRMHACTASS
Sequence of UniProt P07333 (P07333 whole entry): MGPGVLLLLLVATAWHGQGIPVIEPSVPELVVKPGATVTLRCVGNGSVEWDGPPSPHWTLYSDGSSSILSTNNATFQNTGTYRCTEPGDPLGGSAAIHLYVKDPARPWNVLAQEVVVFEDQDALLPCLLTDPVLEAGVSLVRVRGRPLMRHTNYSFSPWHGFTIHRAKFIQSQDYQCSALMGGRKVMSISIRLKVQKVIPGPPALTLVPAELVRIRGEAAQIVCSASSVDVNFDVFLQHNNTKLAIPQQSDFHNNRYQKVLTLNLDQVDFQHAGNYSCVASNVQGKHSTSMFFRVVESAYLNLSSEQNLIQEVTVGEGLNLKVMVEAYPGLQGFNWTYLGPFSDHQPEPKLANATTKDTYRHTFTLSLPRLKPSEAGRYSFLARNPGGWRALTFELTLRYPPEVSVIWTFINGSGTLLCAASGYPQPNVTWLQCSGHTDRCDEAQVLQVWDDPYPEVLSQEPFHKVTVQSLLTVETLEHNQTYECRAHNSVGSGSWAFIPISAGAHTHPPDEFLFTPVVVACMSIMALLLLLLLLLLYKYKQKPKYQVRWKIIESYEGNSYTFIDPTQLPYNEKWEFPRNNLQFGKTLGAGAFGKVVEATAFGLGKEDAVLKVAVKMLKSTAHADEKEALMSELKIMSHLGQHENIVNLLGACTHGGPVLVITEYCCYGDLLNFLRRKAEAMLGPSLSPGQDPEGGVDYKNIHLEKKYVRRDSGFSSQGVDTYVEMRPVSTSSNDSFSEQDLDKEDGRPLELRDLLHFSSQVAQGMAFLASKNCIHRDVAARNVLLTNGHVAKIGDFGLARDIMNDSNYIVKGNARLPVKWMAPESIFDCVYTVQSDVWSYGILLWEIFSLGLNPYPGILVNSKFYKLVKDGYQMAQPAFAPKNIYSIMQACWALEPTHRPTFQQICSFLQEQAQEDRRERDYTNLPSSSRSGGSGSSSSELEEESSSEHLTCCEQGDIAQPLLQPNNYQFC
Sequence of UniProt P53350 (P53350 whole entry): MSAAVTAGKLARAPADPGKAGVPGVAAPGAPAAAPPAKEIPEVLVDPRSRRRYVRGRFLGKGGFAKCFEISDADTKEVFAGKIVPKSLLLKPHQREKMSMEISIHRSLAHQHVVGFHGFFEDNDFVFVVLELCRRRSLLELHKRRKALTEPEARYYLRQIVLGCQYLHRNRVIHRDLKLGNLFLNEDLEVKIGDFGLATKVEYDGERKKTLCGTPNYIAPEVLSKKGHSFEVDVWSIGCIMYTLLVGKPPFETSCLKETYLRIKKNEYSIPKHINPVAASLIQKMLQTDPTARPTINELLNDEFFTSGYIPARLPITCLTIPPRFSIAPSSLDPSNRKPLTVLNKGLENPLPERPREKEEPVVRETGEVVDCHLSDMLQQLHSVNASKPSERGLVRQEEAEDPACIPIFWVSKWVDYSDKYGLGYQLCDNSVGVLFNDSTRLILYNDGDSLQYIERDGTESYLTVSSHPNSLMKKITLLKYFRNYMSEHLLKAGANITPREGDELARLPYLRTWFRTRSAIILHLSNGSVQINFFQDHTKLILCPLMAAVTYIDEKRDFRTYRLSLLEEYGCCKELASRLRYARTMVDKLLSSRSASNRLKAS
Sequence of UniProt P35916 (P35916 whole entry): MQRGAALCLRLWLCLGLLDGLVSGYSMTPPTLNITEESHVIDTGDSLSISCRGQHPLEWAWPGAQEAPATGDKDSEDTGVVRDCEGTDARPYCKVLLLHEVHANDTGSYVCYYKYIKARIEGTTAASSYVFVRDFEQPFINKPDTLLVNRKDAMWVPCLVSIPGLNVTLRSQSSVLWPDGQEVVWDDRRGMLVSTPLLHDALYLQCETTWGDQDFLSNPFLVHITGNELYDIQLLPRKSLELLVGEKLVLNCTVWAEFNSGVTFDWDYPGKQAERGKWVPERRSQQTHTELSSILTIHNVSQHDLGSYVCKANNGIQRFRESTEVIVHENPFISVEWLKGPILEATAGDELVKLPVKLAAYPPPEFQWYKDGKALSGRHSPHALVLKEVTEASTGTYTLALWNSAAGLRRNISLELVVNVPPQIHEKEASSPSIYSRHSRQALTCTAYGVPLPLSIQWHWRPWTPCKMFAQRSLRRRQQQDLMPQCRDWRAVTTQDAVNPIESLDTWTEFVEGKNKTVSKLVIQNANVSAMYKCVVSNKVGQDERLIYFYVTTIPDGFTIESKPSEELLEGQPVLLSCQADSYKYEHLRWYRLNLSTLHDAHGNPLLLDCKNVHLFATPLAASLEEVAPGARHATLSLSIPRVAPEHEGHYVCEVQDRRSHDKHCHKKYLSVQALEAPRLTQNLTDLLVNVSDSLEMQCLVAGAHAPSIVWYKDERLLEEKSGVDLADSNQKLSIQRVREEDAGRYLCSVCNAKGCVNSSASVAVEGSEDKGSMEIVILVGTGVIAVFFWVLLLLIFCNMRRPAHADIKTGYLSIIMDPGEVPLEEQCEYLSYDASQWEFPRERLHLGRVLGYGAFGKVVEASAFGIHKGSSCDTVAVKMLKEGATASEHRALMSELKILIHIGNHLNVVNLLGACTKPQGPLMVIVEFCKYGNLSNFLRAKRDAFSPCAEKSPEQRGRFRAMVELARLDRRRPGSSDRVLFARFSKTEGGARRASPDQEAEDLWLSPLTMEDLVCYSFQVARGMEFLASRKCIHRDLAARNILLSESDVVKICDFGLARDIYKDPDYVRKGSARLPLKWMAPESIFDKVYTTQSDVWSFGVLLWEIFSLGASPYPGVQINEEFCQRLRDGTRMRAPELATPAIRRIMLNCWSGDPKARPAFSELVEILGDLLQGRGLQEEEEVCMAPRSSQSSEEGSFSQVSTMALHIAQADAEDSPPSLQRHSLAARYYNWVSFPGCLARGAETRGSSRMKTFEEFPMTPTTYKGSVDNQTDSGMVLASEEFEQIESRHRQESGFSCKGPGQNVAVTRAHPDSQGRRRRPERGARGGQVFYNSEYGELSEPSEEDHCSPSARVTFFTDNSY

Fc1ccc(-c2ncn(C3CCNCC3)c2-c2ccnc(Oc3cccc(F)c3)n2)cc1
inhibition [1]: 7.07%
inhibition [2]: 3.15%
inhibition [3]: 5.32%
inhibition [4]: 7.16%
inhibition [5]: 6.88%
inhibition [6]: 0.95%
inhibition [7]: 4.58%
inhibition [8]: 3.2%
inhibition [9]: 7.72%
inhibition [10]: 4.92%
inhibition [11]: 8.15%
inhibition [12]: 5.87%
inhibition [13]: 7.08%
inhibition [14]: 6.94%
inhibition [15]: 1.88%
inhibition [16]: 5.84%
inhibition [17]: 2.46%
inhibition [18]: 4.37%
inhibition [19]: 10.5%
inhibition [20]: 4.95%
